# According to the supplement of paper PMC3334620:
# Over roughly 33,000 sequences, “E-score (-0.5 to 0.5)” has its median near -0.017; the highest 2% begin near 0.3. This is one part of the list.
# Target: T1, Sut1 (UniProt P53032)
# T1 sequence: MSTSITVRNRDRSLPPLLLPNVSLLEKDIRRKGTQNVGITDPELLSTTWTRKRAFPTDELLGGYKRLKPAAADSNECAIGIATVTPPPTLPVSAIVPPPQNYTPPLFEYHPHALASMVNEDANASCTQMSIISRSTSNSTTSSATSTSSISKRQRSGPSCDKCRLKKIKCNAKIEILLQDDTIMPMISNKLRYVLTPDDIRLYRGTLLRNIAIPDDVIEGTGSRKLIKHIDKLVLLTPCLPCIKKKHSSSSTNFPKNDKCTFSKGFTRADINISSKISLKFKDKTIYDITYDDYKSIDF
# Assay: PBM E-score (8-mer binding enrichment) (E-score (-0.5 to 0.5)); higher = stronger / more preferred TF binding; most listed sequences are background and not binding sites
# Details: protein concentration: 200 nM; construct: GST-full length
# Procedure, shortened: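 Detection of bound protein used fluorescent anti-GST, with scans normalised by masliner. The proteins were GST-tagged yeast transcription factors applied at about 100-200 nM to universal all-10-mer Agilent arrays made double-stranded by primer extension. Each ungapped eight-base word, pooled with its reverse complement, was scored with an E-score from the Universal PBM Analysis Suite.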
row,Sequence,PBM E-score
1,ACTTGGCA,-0.136
2,GAGTGCCC,-0.186
3,GGTTCACA,-0.178
4,ACAGTCAC,-0.176
5,GGCATACA,-0.0976
6,CCCAGAGC,-0.343
7,TAAGTTGA,0.0816
8,CAGGCGTA,-0.0738
9,ACTTCCCT,-0.1
10,TAAGCGCA,-0.168
11,ACCAATGG,-0.0511
12,CCCCAGAA,-0.173
13,CACCCACC,-0.101
14,ATCCGCGA,-0.0287
15,AAGGTATA,0.0577
16,TATGGCCA,-0.0105
17,CTTAACTC,0.173
18,AGTCGACA,0.00252
19,CGAACTTA,0.0781
20,ATCGTCTA,-0.0411
21,CGACGTGC,-0.197
22,CCTCGAAA,0.14
23,AAGGAGTA,0.0607
24,AATTGTCG,-0.0404
25,CCAAGCCG,-0.219

row,Sequence,PBM E-score
1,ACCAGCAC,-0.131
2,GGCGATGA,-0.143
3,CGGCCAGC,0.024
4,AGCCCGAG,-0.098
5,AGAGCTCT,-0.219
6,TACACACA,0.123
7,CTAACAAA,0.084
8,CGTCGATC,0.0411
9,CTCATCGC,-0.184
10,ACCATAGA,0.0209
11,GTGCATGA,-0.115
12,AACCAGTA,0.0479
13,GTAACAAC,0.0977
14,AAGTCTTA,-0.0979
15,GGCGTGCA,-0.037
16,GCTAACAA,-0.0415
17,AAACTGAT,-0.022
18,CTCAGTTC,-0.0325
19,GCCTACCA,-0.191
20,ATAATGAG,0.238
21,CACACCTG,-0.239
22,AGGCACGG,0.103
23,ATCTGTCG,-0.0193
24,CCATGCTA,-0.214
25,ATCCCTTA,-0.0624

row,Sequence,PBM E-score
1,TCTTCAAA,0.192
2,AGATTGAT,0.0147
3,AAGACGTG,-0.0253
4,GCATAGTA,-0.0141
5,CATGTTGA,0.227
6,GCCGTCTA,-0.22
7,AAGGAGCG,-0.235
8,GTCTGGAA,-0.184
9,GACGTTAC,-0.13
10,AAGATGGC,-0.0118
11,GATATCCC,0.0559
12,AATTCACC,0.113
13,CAATGTGC,-0.0429
14,GATATGCA,-0.021
15,ACGGATCC,0.0774
16,ATGATCGA,0.0913
17,AGGGTACC,-0.227
18,GCGACATA,-0.007
19,GTGCAACA,-0.194
20,TACCCTAA,-0.117
21,AGGTTTAT,0.246
22,GTGTGATA,0.0682
23,CACTTACC,0.068
24,GAAGTAAC,0.0652
25,TGCCATAA,0.113

row,Sequence,PBM E-score
1,CGGGGAAA,0.198
2,CCTGTGCG,-0.131
3,CAACTTAA,0.198
4,CGATGTTA,0.0817
5,AGTAGAAA,0.24
6,CTACACCC,-0.286
7,CGGTCGCC,-0.061
8,GCGGCCAC,-0.128
9,TCGCACCA,0.022
10,CGCACGGA,0.135
11,GAGATTAC,0.0292
12,ATAATTGA,0.204
13,GACGAAGA,0.124
14,CCCTCGCG,-0.204
15,TAGTGCGA,-0.0645
16,TAGCTTGA,-0.0326
17,CGTGTAAC,-0.00945
18,ATCCCTCC,-0.194
19,TTACCCAA,-0.0695
20,ACCACACT,-0.00765
21,CGGTATCC,-0.211
22,ATAAATAT,0.341
23,CTGAGGGC,-0.306
24,ATAGGAGG,-0.187
25,TGGAATAA,0.122

row,Sequence,PBM E-score
1,AGTGAGAA,0.23
2,AGTACCAT,0.0576
3,GCTCGCTA,-0.159
4,AGCGCGCG,-0.0911
5,AATTCACT,0.161
6,ATCCTCAC,0.0417
7,ATTGAAGA,0.0287
8,ACAGTCCT,-0.203
9,AAACCTCG,0.0173
10,CAGACATG,-0.16
11,AGCTACCC,-0.266
12,ATTATGCC,0.133
13,ACAACCGA,0.194
14,CGACCGTC,-0.205
15,CGCACTCC,0.12
16,AATTTTTC,0.184
17,ACCCGAAT,0.026
18,ATCTAAAA,0.104
19,CTGATAAC,0.0944
20,AACGGACA,0.24
21,AGGCGTAC,0.0598
22,ACGGAGCC,0.219
23,CCTAATGC,-0.221
24,ACTGACTG,-0.221
25,TAATACTA,0.273

row,Sequence,PBM E-score
1,ATCCGCAC,-0.0365
2,ATCTTGCC,-0.0399
3,CCATAAAG,0.023
4,AGACGCAT,-0.0444
5,GGATACAC,-0.0246
6,CACAATCA,0.132
7,ACAGTGCC,-0.0419
8,ACCTCGGC,0.0761
9,ACTTGTAG,-0.118
10,GACTTAGC,-0.206
11,TCCTCGAA,-0.0557
12,GAAAATTC,0.123
13,CGTAAGGC,-0.231
14,CTAGTTTC,-0.0244
15,TCCCCGGA,0.364
16,GAACCGCC,0.00633
17,CAGGGGAA,-0.224
18,CGTTCGCC,-0.115
19,ATTGGACC,0.00836
20,GCTGGCAC,-0.374
21,CAGCACCC,-0.162
22,ATCAAGAG,0.117
23,ATTTGTCC,0.186
24,ACGTGCGA,-0.248
25,CTCACCAA,0.115

row,Sequence,PBM E-score
1,ATGGAATC,0.117
2,TAGCTATA,-0.0172
3,CTCATGGC,-0.0874
4,AAGGACTG,-0.278
5,GCCCTAAC,0.106
6,GTTCCCGA,-0.00112
7,ACTACATA,0.137
8,CTAATCAC,0.176
9,CTTTCTCC,0.034
10,CTGATGCC,0.00519
11,AACCGCAA,0.116
12,ACACAGTC,-0.089
13,CCGTCTAG,-0.123
14,CCAAAGCC,-0.07
15,GTCTCTAA,-0.0975
16,CGGCCACA,0.00283
17,ACGACCCA,-0.12
18,GCATGCTA,-0.141
19,CATTGATC,0.0953
20,ATGTATAC,0.166
21,GACGAGCC,-0.22
22,CGGGCCTA,-0.0439
